# The supplement of paper PMC11417369
# This is one part of the list.
# System: PfAP2-HC AP2 domain (GST-tagged)
# Assay: gcPBM binding intensity (ln(normalized median fluorescence intensity)); higher = stronger DNA binding
# In short: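 Binding intensity is defined as the maximum Masliner-normalised natural-log median intensity across replicate spots for either probe orientation. It was measured on an Agilent 4 × 180k array of primer-extended double-stranded 36-bp intergenic genomic probes and negative controls, to which GST-tagged P. falciparum DNA-binding domains made in E. coli were applied for 1 h in 1× PBS with 1% milk, 0.2 mg/ml BSA, 0.5% salmon testes DNA and 0.03% Triton X-100. Detection was by Alexa488 anti-GST antibody and scanning at 488 nm.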
row,Sequence,gcPBM binding intensity (ln)
1,TAAAACAAAATGGTAACACACACATATATATATATA [CACACA_site8590],10.3
2,AAATGGAAATTAATATGTACATATTTATAAGTATGA [XGTACX_site1774],9.72
3,TCCTATCATTTATATTTTACTACATAATATTGATAA [GTGCAC_negctrl_site286],9.46
4,ACATCCTATAAATAGAGTACGTAAATTATAATACAC [XGTACX_site5338],9.69
5,TATATATATATATATTGTACAAAGATTAATATATAA [XGTACX_site8433],9.69
6,TATTTTAATAAGAATAAATGAAATGAAATGAAATAT [CACACA_negctrl_site823],9.62
7,ACTTAATTTTTTTATTGTACATGTAAATGAGGGAAA [XGTACX_site6305],9.52
8,CTTCTGGACAGGAATGCACACATTTTTTTTTCTTTT [CACACA_site1807],10
9,GTTTTTATCATATCATGTACGTATTTTATTTTTTTT [XGTACX_site8643],9.97
10,ATCAAAGATAAATTTACACACATATAAATATAAATA [CACACA_site7409],9.91
11,ATGAATTTTTCTCTACAAAAGGATATAATAAAAATA [XGTACX_negctrl_site461],9.37
12,TAGTGTGCCAAATTAGCACACACATATATACATGAA [CACACA_site8910],10.1
13,TTTTCTAATTAATATTGTACATAAATGTATATATAT [XGTACX_site4749],9.52
14,ATATTTTTTAGGGTCACACATACTTATTATATAAAT [CACACA_site4926],9.73
15,AATATTTAACACCTTATACACACTTTCTTCCTTTTT [CACACA_site785],10.1
16,CATATATACTCATACACACACACACCGACACAGACA [CACACA_site5026],10.3
17,ATGATATGGATAAATACACACAATATAATAATGTCT [CACACA_site1433],9.89
18,TATGATGAGATAACAAAAGTTGTACTTTTTTTTTTT [CACACA_negctrl_site1172],9.35
19,AGAAAAAAAATGTATACACACAAATATAAAGAAGGA [CACACA_site3806],9.96
20,AAAATTAATAAATGAGAAAAAAGGATGAATAATGAG [CACACA_negctrl_site1614],9.79
21,TTTATTAATTAAACCATACACACATAATTTTTTTAT [CACACA_site842],9.92
22,AAACGTGCGTATATGTGTACGCATATATATATATAT [XGTACX_site5252],9.73

row,Sequence,gcPBM binding intensity (ln)
1,AAAGCACGCAAGAATACACACAAATATTATAAAAAA [CACACA_site6206],10.1
2,ATCCCAGTAATATATAGTACATAACTATAAGAGAAT [XGTACX_site6909],9.74
3,TAAAAAATTATAAAATGTACATAAAAAAAAAAAAAA [XGTACX_site3376],9.63
4,CTGAAGAAACTACAACGTACAAAATATGTATATATT [XGTACX_site3779],9.63
5,AGGAAAACAAAAGATGCATGCTAATTTTCCTCGCGT [TGCATGCA_site627],9.53
6,ATGGAAATAAAAAAAAAAAAAAAAAAAAATATATAT [GTGCAC_negctrl_site67],9.52
7,TAGCCCACATTTAATGGTACAGTGAGTATATATATG [XGTACX_site8044],9.57
8,TACATAAAATACCATGCATGCTAGTAAAAAAAAAAA [TGCATGCA_site650],9.66
9,TAATATATTTATAGAGCATGCAACGTAATATTATTA [TGCATGCA_site863],9.67
10,CAAATAGCTAGCTGTGCACACAAACATATTTTCCAA [CACACA_site879],10
11,CACAAACAAAGACACACACACACACGCACAAAAATG [CACACA_site7193],10.7
12,AAAATGCATTTGATGTGTACGCATTATAAAGAACAA [XGTACX_site4203],9.79
13,AATATATAAATTGACACACACATATATACATATATA [CACACA_site1213],10.1
14,GATATGTTTTCCTAGGTTCATGATGATAGGTAGTTT [XGTACX_negctrl_site217],9.83
15,TTTGTGGTTACATGTGCACACACTTATTTCGTTCTT [CACACA_site1435],10.7
16,TATATTTGTTAATTTTGTACGTATGGATATACATAA [XGTACX_site5100],9.55
17,TATAAATATAGAATTACACACAATGTTCTATAAATA [CACACA_site7508],9.7
18,AAGGTGGTTATTAAATGTACACAGACATATACAAAA [XGTACX_site3007],9.76
19,ATATGCTACATTATATGTACACACATATACATATAT [XGTACX_site1656],10.4
20,TAATATAAAGAAATATCAATAATTTGGGCAAATGCC [GTGCAC_negctrl_site621],9.49
21,AGGTAGAAAAAAGACACACACATTATATATATATAT [CACACA_site4367],10.2
22,TTTTATGCATGTGAAGTGCAAAATAAAAAATAAAAT [GTGCAC_site9612],9.56

row,Sequence,gcPBM binding intensity (ln)
1,TTCATTCATTTTATTACACACAAAAAAAAAAAAAAA [CACACA_site3680],9.28
2,AGTTATTTTATAGAATATGAATAATTTTACTTTTCA [XGTACX_negctrl_site403],9.47
3,AAAAAAAAAGGTACTACACACTATTCTCAATAGAAA [CACACA_site6193],9.74
4,AATTTCATTTTACTTATCTAATATTTATAATCTTTT [CACACA_negctrl_site636],9.67
5,AATAATATACCTCTTGTGCACATATTAAAAGTTCAT [GTGCAC_site9536],9.75
6,TTCGTCTTTTTTCTCACACACCCTTTTTATTAAAAG [CACACA_site7225],10.2
7,AAAGAATACATATATTGTACATATATATATACCGTT [XGTACX_site6250],9.98
8,AGAATTAAAATAAAGGTGCATTTTTTTGTTTCATGT,9.61
9,ATAATACAAAACACAAGTACATAAATTAAAAAGATG [XGTACX_site7839],9.91
10,ATATATATTAAAAATAGTACATATAATAAAAATCAT [XGTACX_site4265],9.96
11,TACATATTCCTACAAATGTATAAATTATAAATATTA [XGTACX_negctrl_site30],9.43
12,AACGATATAGGTACTACACACATTATGTCATCCTAT [CACACA_site7205],9.93
13,TGTATATGTTTAATTAGTACATATAAAGTAACAATA [XGTACX_site1207],9.7
14,ATATGAAATATATGTAGTACACATAATTAAAAGTAG [XGTACX_site6490],10.1
15,AATTTTTATATAATTTAACACACATTTCATATAAAA [CACACA_site9018],9.54
16,TTAGGATATTTATTTCGTACATATATTTTTAATTGT [XGTACX_site582],9.7
17,TATAAATTATTTATCACACATAAAACAAAAATAAGA [CACACA_site5493],9.75
18,TACTTCATATAATTAGCACACAATAATTTCTCATTT [CACACA_site2872],9.82
19,TGTGTATTATAAACATGTACATAAAAATACGATATT [XGTACX_site3643],9.76
20,CGCACTAAAAAACACACACACACACCCATATATATA [CACACA_site4152],11
21,AAAAAAAAATAATATACACACTCCAATATAAAAAAT [CACACA_site3958],10.5
22,AATGATGTTGTATTGTTTCGATATAACATCTAATTT [GTGCAC_negctrl_site309],9.46

row,Sequence,gcPBM binding intensity (ln)
1,TTTTTTAAAATAATAGGTACACATAAAAAAAAAAAA [XGTACX_site2517],9.48
2,AAGGATTATTTTAATCGTACATGTGTAAATAATATA [XGTACX_site6177],9.67
3,TTTTTTCATTTTTTATTTTTTTATTTTTTACATATT [GTGCAC_negctrl_site137],9.73
4,TATATATATAGACACACACACATATAAATAAATAAA [CACACA_site444],10.4
5,CATACATACATACATACACACATATATATATATATG [CACACA_site1995],10
6,TTATTTATTTTCATATGTACTTATTTATAGAGGTTG [XGTACX_site5599],9.58
7,ATATAATAACAAAAGGTGCGCATTAAGACAAAAAAA,10
8,TTTTTCCCCCTTTTTTTGATTTTTATCTTAATTCTA [TGCATGCA_negctrl_site287],9.78
9,TATTATATTGTTCATTTACACTTTCATTTTAAAAAA [CACACA_negctrl_site260],9.56
10,ATATAATAAAATTAATGTACATATATGTATTATATA [XGTACX_site3283],9.81
11,TTTCATATATATGAAACACACAAAGGAAAAAAAATT [CACACA_site4144],9.76
12,AACATAATCTCATATACACACAAAAATATTGAAATA [CACACA_site7085],9.86
13,AAAAAAAAAAAACACACACACATAGACCTCCAATAG [CACACA_site3562],10.3
14,ACAAGTTTATTTGTTGCACACATATAAGTAGAGAAA [CACACA_site8994],9.78
15,GCTCATATGACAACAACACACAAAAAAATAAAATGA [CACACA_site714],9.88
16,ATATTTTGTTATGTAGATGTTGGTAGGAATTTTGGT [CACACA_negctrl_site1104],9.72
17,AATAAATAAATAAATAAAACAAAGGGATTACATACA [TGCATGCA_negctrl_site513],9.88
18,CACAACATATATATATATATATATATATATATGTGT [CACACA_negctrl_site28],9.39
19,TTAAAAAAATATTGAAGTACACACATTATAAACTTT [XGTACX_site3548],9.72
20,TACTTTTTAGGAAAGTGTACAAGCATATAAGGAATA [XGTACX_site2834],9.58
21,ATTTTTTTTTTTTTTTTTTTTTTTTTTTAATCTGGA [CACACA_negctrl_site1347],9.04
22,ATATTTAACAGGTTAAAAATATAAACAAATAAATAA [CACACA_negctrl_site907],9.69
